The subject of assay [1] is HUVEC spheroids. Put plainly: Spheroid-based cellular angiogenesis assay. Type of assay: cell-based, human. The conditions noted are these: 25 ng/ml VEGF-A, 24 h. On the procedure: AXL is a key regulator of multiple angiogenic behaviors including endothelial cell migration, proliferation, and tube formation in vitro (Holland et al., Cancer Res: 65, 9294-9303, 2005). […] The experiments were pursued in modification of the originally published protocol (Korff and Augustin: J Cell Sci 112: 3249-58, 1999). In brief, spheroids were prepared as described (Korff and Augustin: J Cell Biol 143: 1341-52, 1998) by pipetting 500 human umbilical vein endothelial cells (HUVEC) in a hanging drop on plastic dishes to allow over night spheroid aggregation. 50 HUVEC spheroids were then seeded in 0.9 ml of a collagen solution (2 mg/ml) and pipetted into individual wells of a 24 well plate to allow polymerization. […] Plates were incubated at 37° C. for 24 hours and fixed by adding 4% paraformaldehyde. Sprouting intensity of HUVEC spheroids was quantified by an image analysis system that determines the cumulative sprout length per spheroid using an inverted microscope and the digital imaging software Analysis 3.2 (Soft imaging system, Munster, Germany). The mean of the cumulative sprout length of 10 randomly selected spheroids was analyzed as an individual data point.

Assay [2] deals with p42/p44 MAP-Kinase. The experiment in a line: p42/p44 MAP-Kinase phosphorylation ELISA, rat versus chimeric antibody. Type of assay: cell-based, human. Particulars: 50 ng/ml to 10 μg/ml antibody, 400 ng/ml Gas6; CaSki. As to the method: To additionally verify whether the rat anti-Axl antibodies of the invention and the corresponding chimeric anti-Axl antibodies of the invention were also able to inhibit Gash-induced activation of p42/p44 MAP-Kinase in CaSki cervical cancer cells to similar extent, ELISA experiments were performed. Here, Gas6-induced p42/p44 MAP-Kinase activation was detected by increased protein (Thr202/Tyr204) phosphorylation. In brief, on the first day, 2×10^4 cells per well were seeded in flat-bottom 96 well plates. The next day, normal growth medium was replaced by serum-free medium to starve cells for 24 h. Thereafter, cells were pre-incubated with 50 ng/ml, 100 ng/ml, 300 ng/ml, 750 ng/ml, 1 μg/ml, and 10 μg/ml of rat anti-Axl antibody 11B7 or chimeric anti-Axl antibody ch11B7 for 1 h at 37° C. and then treated with or without 400 ng/ml Gas6 (R&D Systems) for 10 min at 37° C. Medium was flicked out and cells were fixed with 4% formaldehyde in PBS (pH 7.5) for 30 min at room temperature. Formaldehyde solution was removed and cells were washed twice with wash buffer (PBS, 0.1% Tween 20). Cells were quenched with 1% H2O2, 0.1% NaN3 in wash buffer and incubated for 20 min at room temperature. […] Tetramethylbenzidine (TMB, Calbiochem) was added and monitored at 620 nm.
In general terms: An ELISA detects its analyte on a solid surface through an enzyme-linked reagent.

B1: 11D5: antagonistic rat anti-AXL monoclonal antibody, rat IgG2a (antibody)
heavy: EVQLQESGPGLVKPSQSLSLTCSVTGYSITSNYWGWIRKFPGNKMEWIGHITNSGNTTYNPSLKSRISISRDTSRNQFFLQLNSVTTEDTATYYCAKGAFDYWGQGVMVTVSS[left out - human IgG1 constant region]
light: DIQMTQSPSSMSTSLGDRVTITCRASQDIGNYLSWFQQKVGKSPRRMIYGAIKLAVGVPSRFSGSRSGSDYSLTISSLESEDMAIYYCLQYIQFPLTFGSGTKLELKRTVAAPSVFIFPPSDEQLKSGTASVVCLLNNFYPREAKVQWKVDNALQSGNSQESVTEQDSKDSTYSLSSTLTLSKADYEKHKVYACEVTHQGLSSPVTKSFNRGEC
modifications: 11D5 HC gamma1; 11D5 LC kappa
notes: antagonistic rat anti-AXL monoclonal antibody, rat IgG2a
For B1, the “HUVEC sprouting at the highest antibody concentration” value in assay [1] is listed as “not as effective”.

B2: ch11B7: chimeric anti-AXL antibody, derivative of rat 11B7 (antibody)
heavy: EVQLQESGPGLVKPSQSLSLTCSVTGYSITSNYWGWIRKFPGDKMEWMGYITYSGSTSYNPSLKSRISITRDTSKNQFFLQLNSVTSEDTATYYCAITTFYYWGQGVMVTVSS[left out - human IgG1 constant region]
light: DIQMTQAPSSLPASLGDRVTITCRASQDIGNYLRWFQQKPGKSPRLMISGATNLAAGVPSRFSGSRSGSDYSLTISSLESEDMADYYCLQSKESPWTFGGGTKLELKRTVAAPSVFIFPPSDEQLKSGTASVVCLLNNFYPREAKVQWKVDNALQSGNSQESVTEQDSKDSTYSLSSTLTLSKADYEKHKVYACEVTHQGLSSPVTKSFNRGEC
On to B2, for which the “Gas6-induced p42/p44 MAP-Kinase activation, concentration-dependent” value in assay [2] was “able to block Gas6-induced activation of p42/p44 MAP-Kinase in CaSki cervical cancer cells to similar extent”.

The record behind these values is patent US8933202B2, “AXL antibodies” (U3 Pharma GmbH, priority 2007, dated 2015).
